# Results as given in the supplement of paper PMC4604168 (melanoma cell lines).
# The other results are listed elsewhere or left out. Most values come without repeats; read them as rough.
# Key:
# Assay in all cases: cell count relative to DMSO control; melanoma cells; higher = more viable cells
# Settings in all cases: library dose: standard library concentration; 72 h
# SkMel28 = test system: SkMel28
# SkMel2 = test system: SkMel2
# SkMel30 = test system: SkMel30
# SkMel5 = test system: SkMel5
# UACC257 = test system: UACC257
# UACC62 = test system: UACC62
# WM115 = test system: WM115
# WM1716 = test system: WM1716
# WM1745 = test system: WM1745
# WM3526 = test system: WM3526
# 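Also: cells treated in 1,536-well plates, then fixed and DAPI-stained, with nuclei counted from automated high-throughput microscope images.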
Structure (SMILES),cell count (SkMel28) [%],cell count (SkMel2) [%],cell count (SkMel30) [%],cell count (SkMel5) [%],cell count (UACC257) [%],cell count (UACC62) [%],cell count (WM115) [%],cell count (WM1716) [%],cell count (WM1745) [%],cell count (WM3526) [%]
"NC1(c2ccc(-c3nc4ccn5c(=O)[nH]nc5c4cc3-c3ccccc3)cc2)CCC1 + Cc1cc(N2CCOCC2)cc2[nH]c(-c3c(NC[C@@H](O)c4cccc(Cl)c4)cc[nH]c3=O)nc12 [BMS536924] (first compound 2 µM, partner dose 1 µM)",57,67.2,103,61.1,84.3,74.2,56.6,67.8,52.9,56.4
"NC1(c2ccc(-c3nc4ccn5c(=O)[nH]nc5c4cc3-c3ccccc3)cc2)CCC1 + CO[C@@H]1[C@H](N(C)C(=O)c2ccccc2)C[C@H]2O[C@]1(C)n1c3ccccc3c3c4c(c5c6ccccc6n2c5c31)C(=O)NC4 [Midostaurin] (first compound 2 µM, partner dose 0.4 µM)",51.5,57.1,90.4,46.1,71,66.3,46.2,37.1,31.9,63
"CS(=O)(=O)c1ccc(C(=O)Nc2ccc(Cl)c(-c3ccccn3)c2)c(Cl)c1 [vismodegib] + C=CCn1c(=O)c2cnc(Nc3ccc(N4CCN(C)CC4)cc3)nc2n1-c1cccc(C(C)(C)O)n1 [MK1775] (first compound 5 µM, partner dose 0.1 µM)",51,78.6,75.6,57.8,90.1,65.8,86.9,80.9,55.2,90
"CS(=O)(=O)c1ccc(C(=O)Nc2ccc(Cl)c(-c3ccccn3)c2)c(Cl)c1 [vismodegib] + CCN(CC)CCNC(=O)c1c(C)[nH]c(/C=C2\C(=O)Nc3ccc(F)cc32)c1C [sunitinib] (first compound 5 µM, partner dose 2 µM)",46.5,64.2,49.9,56.5,99.8,57.5,70.8,117,57,57.8
"CCCS(=O)(=O)Nc1ccc(F)c(C(=O)c2c[nH]c3ncc(Cl)cc23)c1F + CC(=O)c1c(C)c2cnc(Nc3ccc(N4CCNCC4)cn3)nc2n(C2CCCC2)c1=O [palbociclib] (first compound 0.4 µM, partner dose 0.2 µM)",24.9,53,58.5,43.8,85.6,44.4,46.6,37.1,98.5,36.5
"CCCS(=O)(=O)Nc1ccc(F)c(C(=O)c2c[nH]c3ncc(Cl)cc23)c1F + C#Cc1cccc(Nc2ncnc3cc(OCCOC)c(OCCOC)cc23)c1 [erlotinib] (first compound 0.4 µM, partner dose 4 µM)",28.4,88.9,63.6,65.3,93.2,34.9,75.8,71.7,59.7,41.5
"CS(=O)(=O)c1ccc(C(=O)Nc2ccc(Cl)c(-c3ccccn3)c2)c(Cl)c1 [vismodegib] + CCCCCCCCc1ccc(CCC(N)(CO)CO)cc1 [fingolimod] (first compound 5 µM, partner dose 10 µM)",0.516,0.299,9.44,34.7,62.2,13.3,12.2,27.2,2.22,29.1
"CS(=O)(=O)c1ccc(C(=O)Nc2ccc(Cl)c(-c3ccccn3)c2)c(Cl)c1 [vismodegib] + CN(C)S(=O)(=O)c1ccc2c(c1)/C(=C/c1cc3c([nH]1)CCCC3)C(=O)N2 [SU6656] (first compound 5 µM, partner dose 2 µM)",52.7,132,91.9,79.2,92.7,89.6,59.2,70.6,47.5,113
"CN(c1ncccc1CNc1nc(Nc2ccc3c(c2)CC(=O)N3)ncc1C(F)(F)F)S(C)(=O)=O + CC1(C)NC(=O)N(c2ccc([N+](=O)[O-])c(C(F)(F)F)c2)C1=O [nilutamide] (first compound 0.4 µM, partner dose 5 µM)",68.2,86.5,95.8,79.8,86.4,105,68.9,88.2,66.4,98
"NC1(c2ccc(-c3nc4ccn5c(=O)[nH]nc5c4cc3-c3ccccc3)cc2)CCC1 + Cc1ccc(NC(=O)c2cccc(N(C)C)c2)cc1NC(=O)c1ccc(O)cc1 [ZM336372] (first compound 2 µM, partner dose 10 µM)",67.6,95,120,77.9,85.6,78,78.7,96.1,92.8,99
"CN(c1ncccc1CNc1nc(Nc2ccc3c(c2)CC(=O)N3)ncc1C(F)(F)F)S(C)(=O)=O + O=C(CCCCCCC(=O)Nc1ccccc1)NO [vorinostat] (first compound 0.4 µM, partner dose 0.4 µM)",47.5,70.1,82,70.9,65.1,60.8,68.8,95.1,75.5,80.4
"CS(=O)(=O)c1ccc(C(=O)Nc2ccc(Cl)c(-c3ccccn3)c2)c(Cl)c1 [vismodegib] + C[C@@H](Oc1cc(-c2cnn(C3CCNCC3)c2)cnc1N)c1c(Cl)ccc(F)c1Cl [Crizotinib] (first compound 5 µM, partner dose 1 µM)",71.5,90.2,77.9,91.6,86.6,76.5,79.4,89.2,81.3,85.4
"C=C(c1ccc(C(=O)O)cc1)c1cc2c(cc1C)C(C)(C)CCC2(C)C [Bexarotene] + CC1(C)NC(=O)N(c2ccc([N+](=O)[O-])c(C(F)(F)F)c2)C1=O [nilutamide] (first compound 10 µM, partner dose 5 µM)",108,74.5,100,91.2,82.2,109,114,93.6,79.1,91.4
"CN(c1ncccc1CNc1nc(Nc2ccc3c(c2)CC(=O)N3)ncc1C(F)(F)F)S(C)(=O)=O + Cn1c(=O)n(-c2ccc(C(C)(C)C#N)cc2)c2c3cc(-c4cnc5ccccc5c4)ccc3ncc21 [NVP-BEZ235] (first compound 0.4 µM, partner dose 0.02 µM)",60.2,65.9,66.2,47.1,92.3,61.7,60.2,71.3,61.4,73.5
"CS(=O)(=O)c1ccc(C(=O)Nc2ccc(Cl)c(-c3ccccn3)c2)c(Cl)c1 [vismodegib] + CCCS(=O)(=O)Nc1ccc(F)c(C(=O)c2c[nH]c3ncc(Cl)cc23)c1F [PLX4720] (first compound 5 µM, partner dose 0.4 µM)",61.8,81.9,95.5,104,94.4,50.5,81.6,69.1,80.2,65.4
"CN(c1ncccc1CNc1nc(Nc2ccc3c(c2)CC(=O)N3)ncc1C(F)(F)F)S(C)(=O)=O + OCCn1cc(-c2cnc3nnn(Cc4ccc5ncccc5c4)c3n2)cn1 [PF04217903] (first compound 0.4 µM, partner dose 5 µM)",74.4,66.8,89.2,77.4,76,78.3,84.8,73.1,48.7,94.2
"C=C(c1ccc(C(=O)O)cc1)c1cc2c(cc1C)C(C)(C)CCC2(C)C [Bexarotene] + CC(C)(C)c1cnc(CSc2cnc(NC(=O)C3CCNCC3)s2)o1 [SNS-032] (first compound 10 µM, partner dose 0.05 µM)",77,83.8,88.1,84.8,75.7,72.5,106,78.9,102,93.8
"NC1(c2ccc(-c3nc4ccn5c(=O)[nH]nc5c4cc3-c3ccccc3)cc2)CCC1 + Cn1c(=O)n(-c2ccc(C(C)(C)C#N)cc2)c2c3cc(-c4cnc5ccccc5c4)ccc3ncc21 [NVP-BEZ235] (first compound 2 µM, partner dose 0.02 µM)",39.1,33.4,42.3,38.5,82.9,62,44.9,52.2,67,35.5
"CS(=O)(=O)c1ccc(C(=O)Nc2ccc(Cl)c(-c3ccccn3)c2)c(Cl)c1 [vismodegib] + CN(NC(=O)CC(=O)NN(C)C(=S)c1ccccc1)C(=S)c1ccccc1 [STA4783] (first compound 5 µM, partner dose 0.03 µM)",35.7,77.6,89,70.1,114,31.1,27.8,72.4,34,103
"CN(c1ncccc1CNc1nc(Nc2ccc3c(c2)CC(=O)N3)ncc1C(F)(F)F)S(C)(=O)=O + CO[C@@H]1[C@H](N(C)C(=O)c2ccccc2)C[C@H]2O[C@]1(C)n1c3ccccc3c3c4c(c5c6ccccc6n2c5c31)C(=O)NC4 [Midostaurin] (first compound 0.4 µM, partner dose 0.4 µM)",63.1,51.1,77,43.9,68.8,72.2,32.8,38.7,36.9,78.1
"CS(=O)(=O)c1ccc(C(=O)Nc2ccc(Cl)c(-c3ccccn3)c2)c(Cl)c1 [vismodegib] + COc1ccc(Cl)c(Nc2nc3ccccc3nc2NS(=O)(=O)c2cccc(NC(=O)C(C)(C)N)c2)c1 [XL147] (first compound 5 µM, partner dose 4 µM)",100,88.1,91.1,109,83.4,65.8,94.8,98.1,107,85.3
"NC1(c2ccc(-c3nc4ccn5c(=O)[nH]nc5c4cc3-c3ccccc3)cc2)CCC1 + CO[C@H]1C[C@@H]2CC[C@@H](C)[C@@](O)(O2)C(=O)C(=O)N2CCCC[C@H]2C(=O)O[C@H]([C@H](C)C[C@@H]2CC[C@@H](OCCO)[C@H](OC)C2)CC(=O)[C@H](C)/C=C(\C)[C@@H](O)[C@@H](OC)C(=O)[C@H](C)C[C@H](C)/C=C/C=C/C=C/1C [everolimus] (first compound 2 µM, partner dose 0.1 µM)",36.1,49,64.1,44.2,88.8,75.5,61.1,56.5,69.1,53.8
